In paper PMC9911399, “Two distinct binding modes provide the RNA-binding protein RbFox with extraordinary sequence specificity”:
Positions count from the first letter of the chain named. This is one part of the list.

T1: RBFOX1 RRM (Homo sapiens, UniProt Q9NWB1 109-208)
T1 sequence: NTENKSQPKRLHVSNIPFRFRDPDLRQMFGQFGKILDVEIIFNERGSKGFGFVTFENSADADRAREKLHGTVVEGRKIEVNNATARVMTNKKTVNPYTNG

B1: GCGACCA (DNA:RNA)
RNA: GGGAGACCGGAAUUCAGAUUGUCCGCGACCAUUAAAUCCCGUCGUAGCCACCA
DNA 1: CAATCTGAATTCCGGTCTCCC
DNA 2: TGGTGGCTACGACGGGATT
B2: CUUGCAU (DNA:RNA)
RNA: B1 RNA with G25C, C26U, G27U, A28G, C30A, A31U
DNA 1: CAATCTGAATTCCGGTCTCCC
DNA 2: TGGTGGCTACGACGGGATT
B3: ACUGCUG (DNA:RNA)
RNA: B1 RNA with G25A, G27U, A28G, C30U, A31G
DNA 1: CAATCTGAATTCCGGTCTCCC
DNA 2: TGGTGGCTACGACGGGATT
B4: GAUAAGA (DNA:RNA)
RNA: B1 RNA with C26A, G27U, C29A, C30G
DNA 1: CAATCTGAATTCCGGTCTCCC
DNA 2: TGGTGGCTACGACGGGATT
B5: AAUCACA (DNA:RNA)
RNA: B1 RNA with G25A, C26A, G27U, A28C, C29A
DNA 1: CAATCTGAATTCCGGTCTCCC
DNA 2: TGGTGGCTACGACGGGATT
B6: AGGAGCG (DNA:RNA)
RNA: B1 RNA with G25A, C26G, C29G, A31G
DNA 1: CAATCTGAATTCCGGTCTCCC
DNA 2: TGGTGGCTACGACGGGATT
B7: AAGUUUU (DNA:RNA)
RNA: B1 RNA with G25A, C26A, A28U, C29U, C30U, A31U
DNA 1: CAATCTGAATTCCGGTCTCCC
DNA 2: TGGTGGCTACGACGGGATT
B8: GUUCGAC (DNA:RNA)
RNA: B1 RNA with C26U, G27U, A28C, C29G, C30A, A31C
DNA 1: CAATCTGAATTCCGGTCTCCC
DNA 2: TGGTGGCTACGACGGGATT
B9: UGGCGUU (DNA:RNA)
RNA: B1 RNA with G25U, C26G, A28C, C29G, C30U, A31U
DNA 1: CAATCTGAATTCCGGTCTCCC
DNA 2: TGGTGGCTACGACGGGATT
B10: UCGGUAG (DNA:RNA)
RNA: B1 RNA with G25U, A28G, C29U, C30A, A31G
DNA 1: CAATCTGAATTCCGGTCTCCC
DNA 2: TGGTGGCTACGACGGGATT
B11: GGGGGGA (DNA:RNA)
RNA: B1 RNA with C26G, A28G, C29G, C30G
DNA 1: CAATCTGAATTCCGGTCTCCC
DNA 2: TGGTGGCTACGACGGGATT
B12: UAUUACC (DNA:RNA)
RNA: B1 RNA with G25U, C26A, G27U, A28U, C29A, A31C
DNA 1: CAATCTGAATTCCGGTCTCCC
DNA 2: TGGTGGCTACGACGGGATT
B13: AAAACAA (DNA:RNA)
RNA: B1 RNA with G25A, C26A, G27A, C30A
DNA 1: CAATCTGAATTCCGGTCTCCC
DNA 2: TGGTGGCTACGACGGGATT
B14: CGGGCUG (DNA:RNA)
RNA: B1 RNA with G25C, C26G, A28G, C30U, A31G
DNA 1: CAATCTGAATTCCGGTCTCCC
DNA 2: TGGTGGCTACGACGGGATT
B15: AUUCCGC (DNA:RNA)
RNA: B1 RNA with G25A, C26U, G27U, A28C, C30G, A31C
DNA 1: CAATCTGAATTCCGGTCTCCC
DNA 2: TGGTGGCTACGACGGGATT
B16: UUAGGUC (DNA:RNA)
RNA: GGGAGACCGGAAUUCAGAUUGUCCUUAGGUCUUAAAUCCCGUCGUAGCCACCA
DNA 1: CAATCTGAATTCCGGTCTCCC
DNA 2: TGGTGGCTACGACGGGATT
B17: UGACCUG (DNA:RNA)
RNA: B16 RNA with U26G, G28C, G29C, C31G
DNA 1: CAATCTGAATTCCGGTCTCCC
DNA 2: TGGTGGCTACGACGGGATT
B18: CCAUUCU (DNA:RNA)
RNA: B1 RNA with G25C, G27A, A28U, C29U, A31U
DNA 1: CAATCTGAATTCCGGTCTCCC
DNA 2: TGGTGGCTACGACGGGATT
B19: GGUUUAC (DNA:RNA)
RNA: B1 RNA with C26G, G27U, A28U, C29U, C30A, A31C
DNA 1: CAATCTGAATTCCGGTCTCCC
DNA 2: TGGTGGCTACGACGGGATT
B20: AAGAUUU (DNA:RNA)
RNA: B1 RNA with G25A, C26A, C29U, C30U, A31U
DNA 1: CAATCTGAATTCCGGTCTCCC
DNA 2: TGGTGGCTACGACGGGATT

Each binder was assayed against T1, RBFOX1 RRM (assay: EMSA; HiTS-Eq, 1 nM pool, 10 min; buffer printed only for the single-RNA assays: 10 mM Tris pH 7.5, 150 mM NaCl, 3.4 mM EDTA, 0.001% NP-40, 30 C). Details: tags: His6 N-terminal (pET28a); label: 5' 32P.
Outline: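 Relative association constants, normalised to the cognate motif, were derived by comparing read counts of each RNA species with those of the control reaction. The RNA sequenced was the free fraction, separated by 8% native PAGE after a 10 min equilibration in 50 µL of 1 nM 5′-radiolabelled RNA (7 randomized nucleotides) with increasing concentrations of purified wild-type or mutant RbFox RRM.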

Row | Binder | binding signal
1 | B1 | 0.00785 KA relative to UGCAUGU
2 | B2 | 0.0144 KA relative to UGCAUGU
3 | B3 | 0.0149 KA relative to UGCAUGU
4 | B4 | 0.0105 KA relative to UGCAUGU
5 | B5 | 0.000184 KA relative to UGCAUGU
6 | B6 | 0.0162 KA relative to UGCAUGU
7 | B7 | 0.0052 KA relative to UGCAUGU
8 | B8 | 0.0154 KA relative to UGCAUGU
9 | B9 | 0.0221 KA relative to UGCAUGU
10 | B10 | 0.0155 KA relative to UGCAUGU
11 | B11 | 0.0226 KA relative to UGCAUGU
12 | B12 | 0.00418 KA relative to UGCAUGU
13 | B13 | 0.000116 KA relative to UGCAUGU
14 | B14 | 0.0324 KA relative to UGCAUGU
15 | B15 | 0.00359 KA relative to UGCAUGU
16 | B16 | 0.0171 KA relative to UGCAUGU
17 | B17 | 0.0199 KA relative to UGCAUGU
18 | B18 | 0.000278 KA relative to UGCAUGU
19 | B19 | 0.0136 KA relative to UGCAUGU
20 | B20 | 0.00694 KA relative to UGCAUGU
